# Among all 2,000 compounds or so, about 110 (5.5%) showed an effect of 50% or more. This is one part of the list.
# Target: Genome polyprotein (dengue virus type 2) (UniProt P29990)
# [1] = Thailand/16681/1984, Concentration 25.0 uM, Number of replicates 1.0
smiles,measurement,setting,value
COc1ccc(Cl)c(NC(=O)C2CCN(c3ccc(C=O)cc3)CC2)c1,inhibition,[1],12.9%
COc1cccc2c(N3CCC(C(=O)O)CC3)nccc12,inhibition,"Thailand/16681/1984, Concentration 49.95 uM, Number of replicates 2.0, Standard deviation 4.4972310857728575 %",-5.87%
same,inhibition,"Thailand/16681/1984, Concentration 99.9 uM, Number of replicates 2.0, Standard deviation 6.395002295242678 %",-4.4%
Cc1n[nH]c(CC(=O)N2CCC[C@H](n3cnc(C(N)=O)n3)C2)n1,inhibition,"Thailand/16681/1984, Concentration 49.5 uM, Number of replicates 2.0, Standard deviation 0.8615620840433298 %",-1.22%
same,inhibition,"Thailand/16681/1984, Concentration 99.01 uM, Number of replicates 2.0, Standard deviation 0.2938998370290156 %",-1.99%
same,inhibition,"Thailand/16681/1984, Concentration 198.0 uM, Number of replicates 2.0, Standard deviation 1.103757347430939 %",-0.94%
O=Cc1ccc(N2CCC(C(=O)Nc3ccc(C(F)(F)F)cn3)CC2)cc1,inhibition,[1],13.1%
O=Cc1ccc(N2CCC(C(=O)N3CCc4c([nH]c5ccccc45)C3)CC2)cc1,inhibition,[1],9.27%
Cc1ncc(-c2ccccc2C(=O)Nc2cnn(C)c2)cn1,inhibition,"Thailand/16681/1984, Concentration 49.5 uM, Number of replicates 2.0, Standard deviation 1.8830776326988092 %",0.863%
same,inhibition,"Thailand/16681/1984, Concentration 99.01 uM, Number of replicates 2.0, Standard deviation 1.4139307148727385 %",1.92%
same,inhibition,"Thailand/16681/1984, Concentration 198.0 uM, Number of replicates 2.0, Standard deviation 0.9378300938779764 %",3%
O=Cc1ccc(N2CCC(C(=O)Nc3nc(-c4ccc(Cl)c(Cl)c4)cs3)CC2)cc1,inhibition,[1],14.6%
CC[C@H]1CCN(c2nccn(CC)c2=O)C1,inhibition,"Thailand/16681/1984, Concentration 49.5 uM, Number of replicates 2.0, Standard deviation 1.2045387230027946 %",5.49%
same,inhibition,"Thailand/16681/1984, Concentration 99.01 uM, Number of replicates 2.0, Standard deviation 1.538920355145433 %",11.2%
same,inhibition,"Thailand/16681/1984, Concentration 198.0 uM, Number of replicates 2.0, Standard deviation 0.5510825197470987 %",22%
Cc1cc(CO)c2cccc(Cc3ccccc3NC(=O)c3nc(C4CCNCC4)oc3C)c2n1,inhibition,"Thailand/16681/1984, Concentration 49.95 uM, Number of replicates 2.0, Standard deviation 1.1742415452444355 %",3.36%
same,inhibition,"Thailand/16681/1984, Concentration 99.9 uM, Number of replicates 2.0, Standard deviation 2.967451033370285 %",69.9%
CNC(=O)C1(C(=O)Nc2ccncc2C)CC1,inhibition,"Thailand/16681/1984, Concentration 49.5 uM, Number of replicates 2.0, Standard deviation 1.0913332994268976 %",-3.7%
same,inhibition,"Thailand/16681/1984, Concentration 99.01 uM, Number of replicates 2.0, Standard deviation 0.634108102390891 %",-3.75%
same,inhibition,"Thailand/16681/1984, Concentration 198.0 uM, Number of replicates 2.0, Standard deviation 0.9969322823700151 %",-3.62%
Cc1cc(CO)c2cccc(Cc3cccc(C(=O)N4CC[C@@H](CO)C4)c3)c2n1,inhibition,"Thailand/16681/1984, Concentration 49.95 uM, Number of replicates 2.0, Standard deviation 1.5846275376108605 %",1.42%
same,inhibition,"Thailand/16681/1984, Concentration 99.9 uM, Number of replicates 2.0, Standard deviation 0.9371220268229934 %",23.4%
COc1cc(NC(=O)C2CCN(c3ccc(C=O)cc3)CC2)nc(OC)n1,inhibition,[1],9.38%
O=Cc1ccc(N2CCC(C(=O)Nc3ncccc3C(F)(F)F)CC2)cc1,inhibition,[1],12.3%
COc1cc(CS(=O)(=O)Cc2c(F)cccc2Cl)nc(N2CCNCC2)n1,inhibition,"Thailand/16681/1984, Concentration 50.0 uM, Number of replicates 2.0, Standard deviation 0.3148657868207599 %",-0.911%
same,inhibition,"Thailand/16681/1984, Concentration 100.0 uM, Number of replicates 2.0, Standard deviation 0.26663335485337786 %",-0.723%
same,inhibition,"Thailand/16681/1984, Concentration 200.0 uM, Number of replicates 2.0, Standard deviation 0.41891784213075806 %",1.05%
O=Cc1ccc(N2CCC(C(=O)Nc3ncc(C(F)(F)F)cc3Cl)CC2)cc1,inhibition,[1],11.8%
Cc1cc(Br)cc(C)c1NC(=O)C1CCN(c2ccc(C=O)cc2)CC1,inhibition,[1],11.3%

# From ChEMBL document CHEMBL5606460, “ASAP - DENV-2 NS2B-NS3 protease fluorescence single point” (2024)
